Out of some 210,000 compounds screened, about 5,900 (2.8%) were called active. This list was built around the results that the source calls inconclusive (neither active nor inactive); the mix of calls is not that of the screen. The call rests on the fitted dose curve; in most records, active means well fitted activation curve with a large enough effect; inconclusive means small, poorly fitted or top-dose-only effect; inactive means no such curve, though single readings can be large or run the other way. Potencies beside an inconclusive call are fits to weak or partial responses and may not hold up.
Assay: qHTS Assay for Enhancers of SMN2 Splice Variant Expression; further: nearly all actives have a fitted effect of over 55% in size; on activity change, positive = activation: % of control where 0% means no effect
Settings: HEK293 SMN2-luciferase splicing reporter, luminescence, 30-36 h; activity change, positive = activation: at 46.1 µM (top of the series)
Method in brief: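 HEK293 cells carry an SMN2 […]–luciferase reporter in which exon 7 inclusion puts luciferase in frame. Cells were plated 10-12 h before compound addition, then incubated 30-36 h at 37C. ONE-Glo luminescence was read; sodium butyrate at 4.5 mM final served as control.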
Potency means the concentration at half of the fitted maximal effect; tags describe the fitted curve by direction and shape.

SMILES	Potency	activity change, positive = activation
CCn1c(SCC(=O)NCc2cccs2)nnc1-c1ccco1	inconclusive: 2.24 µM [activator, single point]	
CC(C)CC(=O)Nc1cccc(NC(=O)CC(C)C)n1	inconclusive: 35.5 µM [activator, single point]	
COc1cccc(C(=O)Nc2ccccc2N2CCOCC2)c1	inconclusive: 0.0891 µM [activator, full curve, poor fit]	
COc1ccccc1/C=N/NC(=O)c1cccc(OC(F)(F)C(F)F)c1	inactive	
Cc1ccc2[nH]c(=O)c(C3=NN(C(=O)CCC(=O)O)C(c4cccs4)C3)c(-c3ccccc3)c2c1 (stereo unspecified)	inactive	
c1ccc(CSc2ccc(-c3cccs3)nn2)cc1	active: 15.8 µM	
O=C(/C=C/Nc1ccc(F)cc1)c1ccc(Oc2ncccn2)cc1	inactive	
CCCn1nnc(NC(=O)c2cc3ccccc3o2)n1	active: 10 µM	
CC(NS(=O)(=O)c1ccccc1)C(=O)NCc1ccco1 (stereo unspecified)	inconclusive: 0.0891 µM [activator, full curve]	
C=CCn1c(P(=O)(O)c2ccccc2)nc2ccccc21	inconclusive: 6.31 µM [activator, partial curve, poor fit]	
O=C(COC(=O)c1ccccc1F)c1ccc(-n2nncc2-c2ccco2)cc1	inactive	
O=C(CSCC(=O)N1CCCc2ccccc21)Nc1nc(-c2ccccc2)cs1	inconclusive: 14.1 µM [activator, single point]	
O=C(Nc1ccccn1)c1cc(-n2cnnc2)ccc1Cl	inconclusive: 0.316 µM [activator, partial curve, poor fit]	
CC1=NN(C(N)=S)C(=O)C1N=Nc1ccccc1C (stereo unspecified)	inconclusive: 35.5 µM [activator, single point]	
CCCSc1nc(C)cc(C)c1S(=O)(=O)c1ccccc1C	inactive	
Cc1c(/C=N\NC(=O)c2csc3ccccc23)cnn1C	inactive	
COc1ccc2c(c1OC)C(=O)N(c1ncn[nH]1)C2	inconclusive: 35.5 µM [activator, single point]	
CCOc1ccc(C2=NC(c3cccs3)=Nc3ccc(C(C)C)cc3N2)cc1	inconclusive: 14.1 µM [activator, single point]	
CC(C)COC(=O)c1ccc2c(c1O)C(=O)c1ccccc1C2=O	inconclusive: 17.8 µM [activator, single point]	
Cc1ccccc1NS(=O)(=O)c1ccc(Br)s1	inactive	
CC1=NN(c2nc(-c3ccc(Cl)cc3)cs2)C(=O)C1	inactive	
COc1ccccc1NC(=O)COC(=O)CNC(=O)c1ccc(OC)c(OC)c1	active: 5.01 µM	
CCN(CC)S(=O)(=O)c1ccc(NC(=S)NC(=O)C(C)C)cc1	inconclusive: 3.55 µM [activator, single point]	
Cc1ccc(NC(=O)CN(C)S(=O)(=O)c2ccc3nc(C)sc3c2)c(C)c1	inactive	
Cc1cc(C)nc(NC(=O)/C=C/c2ccccc2Cl)n1	inconclusive: 14.1 µM [activator, single point]	
COc1ccc2cc(-c3csc(-c4cccnc4)n3)ccc2c1	active: 12.6 µM	

SMILES	Potency	activity change, positive = activation
COc1cccc(-n2c(SCC(=O)NC3CCCCC3)nc3n[nH]c(C)c3c2=N)c1	inconclusive: 25.1 µM [activator, partial curve]	
O=C(Nc1cc(N2CCCCC2)ncn1)c1ccccc1	inconclusive: 12.6 µM [activator, partial curve]	
COc1ccc(NC(=O)c2cn(-c3ccccc3)nc2-c2ccc(C)cc2)cc1	inactive	
CCOC(=O)CSc1nc2ccc(C)cc2cc1C#N	active: 15.8 µM	
N/C(=N\OC(=O)c1ccco1)c1cccc(Br)c1	inconclusive: 2.51 µM [activator, full curve]	
Cc1cccc(Nc2nnc(SCC(=O)NC3CCCc4ccccc43)s2)c1 (stereo unspecified)	inactive	
COc1ccc(/C=N/Nc2cc(C)nc(N)n2)cc1	inconclusive: 35.5 µM [activator, partial curve]	
COC(=O)C1(C(C)=O)CC2=CC[C@@H]3C(=O)N(c4ccccc4)C(=O)[C@@H]3[C@@H]2Cc2ccccc2[C@@H]1C[N+](=O)[O-] (stereo partly specified)	inactive	
COc1ccc(-c2nc(-c3cccs3)c(-c3cccs3)[nH]2)cc1OC	inconclusive: 10 µM [activator, partial curve, poor fit]	
COc1ccc(OCCCCn2c(C3CC(=O)N(c4cccc(Cl)c4)C3)nc3ccccc32)cc1 (stereo unspecified)	inactive	
CCn1c(=N)c(S(=O)(=O)c2ccc(C)cc2)cc2c(=O)n3ccccc3nc21	inactive	
O=C(Nc1ccc(Cl)cn1)c1ccc2ccccc2n1	active: 20 µM	
CSCCNC(=O)c1ccc(C(C)(C)C)cc1	inconclusive: 14.1 µM [activator, single point]	
CCOCC(=O)Nc1ccc(OCc2ccccc2)cc1	inconclusive: 17.8 µM [activator, single point]	
CC(C)(O)C#Cc1ccc([C@@H]2C[C@H]3CN(c4ccccc4)C(=O)[C@]34CCCN24)s1	inconclusive: 22.4 µM [activator, single point]	
CC(NC(=S)NCc1ccccc1)C12CC3CC(CC(C3)C1)C2 (stereo unspecified)	inconclusive: 6.31 µM [activator, single point]	
CCOCC(=O)Nc1ccc(-c2cn3cccnc3n2)cc1	inactive	
Cc1nnc2c(NC(C)C)nc3ccccc3n12	inconclusive: 15.8 µM [activator, single point]	
Cc1ccc(NC(=O)NCCCN2CCOCC2)cc1	inconclusive: 2.24 µM [activator, partial curve]	
COC(=O)CSc1nnc(-c2ccc(S(=O)(=O)N3CCCCC3)cc2)o1	inconclusive: 0.501 µM [activator, full curve]	
COc1ccc(C2CC(c3cccs3)=Nc3ccccc3S2)cc1 (stereo unspecified)	inconclusive: 6.31 µM [activator, single point]	
Cc1ccc(OCCCn2c(CO)nc3ccccc32)cc1	inconclusive: 0.0032 µM [activator, full curve, poor fit]	
Cc1ccc(OCC(=O)Nc2ccc(-c3nc4ncccc4o3)cc2)cc1	inconclusive: 35.5 µM [activator, single point]	
Cc1occc1C(=O)Nc1sc2c(c1C(N)=O)CCCCC2	inconclusive: 17.8 µM [activator, single point]	
CCN(CCCNC(=O)c1cc2cc3ccc(C)cc3nc2s1)c1ccccc1	inconclusive: 22.4 µM [activator, single point]	
CCCn1c(N)c(C(=O)CSc2nc3ccccc3s2)c(=O)[nH]c1=O	active: 12.6 µM	

SMILES	Potency	activity change, positive = activation
CC(C)(C)Cc1nnc(NC(=O)c2ccc([N+](=O)[O-])cc2)s1	inconclusive: 31.6 µM [activator, single point]	
CCOC(=O)c1cc2c(nc1NC(=S)NCc1ccccc1)CCCC2	active: 11.2 µM	
Cc1nc(N2CCN(S(=O)(=O)c3cccc4nonc34)CC2)c2c3c(sc2n1)CCCC3	inactive	
CN(C)S(=O)(=O)c1cccc(NS(=O)(=O)c2ccc(Cl)s2)c1	inconclusive: 4.47 µM [activator, partial curve]	
CCCCN(CC)CCCNC(=O)c1cc2c(=O)n(C)c3ccccc3c2n1C	inconclusive: 15.8 µM [activator, single point]	
CCCn1nc([N+](=O)[O-])c(C(C#N)c2nc3ccccc3o2)c(Cl)c1=O (stereo unspecified)	inconclusive: 14.1 µM [activator, single point]	
COc1ccc(-n2nnnc2SCC(=O)c2ccc(O)c(O)c2)cc1	inconclusive: 35.5 µM [activator, single point]	
CNC(=S)NN(c1ccccc1)c1ccccc1	inconclusive: 22.4 µM [activator, partial curve, poor fit]	
CC(Cc1cccs1)NC(=O)NC1CCCCC1 (stereo unspecified)	inconclusive: 11.2 µM [activator, single point]	
COc1nnc(-c2ccc(N3CCOCC3)c(NC(=O)c3ccc(C)cc3)c2)c2ccccc12	inactive	
CCCn1c(C)cc(C(=O)COC(=O)c2cc(S(=O)(=O)NCC(C)C)c(Cl)cc2Cl)c1C	inconclusive: 5.62 µM [activator, full curve]	
COc1ccc(-c2cc(-c3ccc(OC)cc3)c(C#N)c(SC)n2)cc1	inactive	
CC(C)(C)C1CCc2oc3ccc(NS(=O)(=O)c4cc(Cl)ccc4Cl)cc3c2C1 (stereo unspecified)	inactive	
Cc1cc2nc(-c3cccnc3SCC(=O)NC(C)C)[nH]c2cc1C	active: 11.2 µM	
Cc1ccc(C(=O)Nc2nc3ccc(S(C)(=O)=O)cc3s2)s1	active: 11.2 µM	
CCOCC(=O)Nc1ccc2c(c1)OCCO2	inconclusive: 35.5 µM [activator, single point]	
COc1ccccc1-n1cnc2cc(C(=O)NC3CCCC3)ccc21	inactive	
O=c1c2ccccc2nnn1CSc1nnc(-c2cccs2)n1Cc1ccccc1		inconclusive: 108% [activator]
Cn1c(=O)n(C)c2cc(NS(=O)(=O)c3ccc(Br)cc3)c(NCc3ccccc3)cc21	active: 7.08 µM	
Fc1ccccc1/C=C/c1ccc2ccccc2n1	active: 0.891 µM	
O=C1CCCN1CCCNCC(=O)N1c2ccccc2Sc2ccccc21	inconclusive: 14.1 µM [activator, partial curve]	
COc1ccc(Br)cc1/C=N/n1c(C)nnc1C	inconclusive: 15.8 µM [activator, single point]	
O=C(NCC(c1cccs1)N1CCOCC1)c1ccco1 (stereo unspecified)	inactive	
CCCCOC(=O)Nc1ccc(C)c(Cl)c1	inconclusive: 20 µM [activator, partial curve, poor fit]	

Source: PubChem BioAssay AID1458 (National Center for Advancing Translational Sciences (NCATS), 2008)
